Screen size: about 310,000 compounds; about 2,200 (0.71%) showed an effect of 50% or more. The effect is printed as a negative number. Some of the results follow.
The molecules below were run against human ether-à-go-go-related gene (hERG) potassium channel (human, UniProt Q12809) (assay: primary screen, population patch clamp on CHO cells stably expressing hERG).
Sequence of human ether-à-go-go-related gene (hERG) potassium channel (Q12809 whole entry, looked up): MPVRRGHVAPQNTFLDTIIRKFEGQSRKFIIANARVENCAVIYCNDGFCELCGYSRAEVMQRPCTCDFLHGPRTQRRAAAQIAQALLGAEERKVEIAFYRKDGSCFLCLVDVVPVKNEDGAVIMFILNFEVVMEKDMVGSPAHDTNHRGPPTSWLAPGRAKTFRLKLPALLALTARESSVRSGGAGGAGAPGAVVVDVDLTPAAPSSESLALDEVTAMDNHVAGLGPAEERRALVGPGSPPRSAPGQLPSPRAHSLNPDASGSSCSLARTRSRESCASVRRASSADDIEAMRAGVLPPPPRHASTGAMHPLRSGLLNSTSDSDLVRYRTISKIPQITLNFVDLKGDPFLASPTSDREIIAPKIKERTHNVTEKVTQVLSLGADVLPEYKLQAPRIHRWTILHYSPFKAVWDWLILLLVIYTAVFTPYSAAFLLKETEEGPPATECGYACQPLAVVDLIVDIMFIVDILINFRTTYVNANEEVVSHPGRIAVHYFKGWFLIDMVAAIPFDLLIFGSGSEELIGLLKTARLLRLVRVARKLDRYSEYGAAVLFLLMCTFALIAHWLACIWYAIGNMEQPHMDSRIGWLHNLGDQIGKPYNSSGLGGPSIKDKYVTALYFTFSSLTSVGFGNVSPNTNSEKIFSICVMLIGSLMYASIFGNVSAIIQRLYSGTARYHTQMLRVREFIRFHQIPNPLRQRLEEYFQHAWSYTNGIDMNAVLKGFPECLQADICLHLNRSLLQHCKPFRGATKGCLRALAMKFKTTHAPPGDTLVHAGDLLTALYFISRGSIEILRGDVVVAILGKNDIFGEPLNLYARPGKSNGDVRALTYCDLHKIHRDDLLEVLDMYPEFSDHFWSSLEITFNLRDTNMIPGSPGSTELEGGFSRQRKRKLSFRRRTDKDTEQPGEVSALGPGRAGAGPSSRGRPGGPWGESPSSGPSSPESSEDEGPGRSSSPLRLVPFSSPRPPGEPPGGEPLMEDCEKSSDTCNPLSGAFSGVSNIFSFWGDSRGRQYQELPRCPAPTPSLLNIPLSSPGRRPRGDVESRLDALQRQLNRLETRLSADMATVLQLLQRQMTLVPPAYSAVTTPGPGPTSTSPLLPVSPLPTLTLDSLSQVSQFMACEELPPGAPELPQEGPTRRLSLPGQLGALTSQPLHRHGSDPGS

In order of falling “hERG current change (%, negative = inhibition) at 1uM” value:
1. CCOC(=O)C1CCCN(C(=O)c2cn(CC)c(=O)c3cc(OC)c(OC)cc23)C1 (stereo not shown)  19.9%
2. CN1CCc2nc(SC(C(=O)O)c3ccccc3)c(C#N)c(-c3cccs3)c2C1 (stereo not shown)  18.1%
3. COC(=O)C(NC(=O)C(C)NC(=O)OCc1ccccc1)C(C)C (stereo not shown)  15.3%
4. CC(=O)c1sc(NC(=O)C2CCCN2S(=O)(=O)c2ccccc2F)nc1C (stereo not shown)  13.9%
5. CCCCN(C(=O)C1CSC2(C)CCC(=O)N12)c1c(N)n(CC(C)C)c(=O)[nH]c1=O (stereo not shown)  13.4%
6. Cn1nc(C(F)(F)F)c(-c2cccc(C(F)(F)F)c2)c1NC(=O)CSCC(=O)O  13%
7. Br.CCOC(=O)C(CC)(CCC(=O)OC)c1csc(Nc2ccccc2O)n1 (stereo not shown)  12.6%
8. CC(C)(C)C1COc2ccccc2N1C(=O)c1cccc(Cl)c1 (stereo not shown)  12.3%
9. COc1cc(-c2nn3c(-c4cccc(C)c4)nnc3s2)cc(OC)c1OC  11.7%
10. COc1ccc(OCC(=O)N/N=C/c2ccc(N(C)C)cc2)cc1  11.6%
11. O=c1cc(CSc2ccc(Cl)cc2)nc(N2CCCCC2)[nH]1  11.5%
12. CCn1cc(CNC(=O)c2ccc3nc(Cc4ccccc4F)oc3c2)cn1  11.3%
13. CCCOCC(O)CC(CC)C(=O)NNC(=S)Nc1ccccc1 (stereo not shown)  11.3%
14. Cc1cc(C)c2nc(NNC(=O)c3cc(=O)c4ccccc4o3)sc2c1  11.2%
15. COCCN(C(=O)COC(=O)/C=C/c1ccc2ccccc2n1)c1c(N)n(Cc2ccccc2)c(=O)[nH]c1=O  11.1%
16. COc1ccccc1CC(=O)NNS(=O)(=O)c1ccccc1[N+](=O)[O-]  10.9%
17. Cn1nc(C(=O)Nc2cccc(S(=O)(=O)N3CCCC3)c2)c2ccccc2c1=O  8.34%
18. COc1ccc2oc(C(=O)OCC(=O)Nc3ccc(OC)c(S(N)(=O)=O)c3)c(C)c2c1  7.56%
19. CCCCC1=CC2=CC(=O)C(C)(OC(=O)CC)C(=O)C2=CN1CC(C)C (stereo not shown)  7.45%
20. Cc1ccc(Cl)cc1N1CCN(S(=O)(=O)c2c(C)noc2C)CC1  7.27%
21. O=C(NCC1CCCO1)C(=Cc1cccc([N+](=O)[O-])c1)C(=O)NCC1CCCO1 (stereo not shown)  6.59%
22. Cc1nn(-c2ccccc2)c(N2CCCC2)c1/C=N/NC(=O)C1CC1  6.34%
23. CCCCC1=CC2=CC(=O)C(C)(OC(=O)CC)C(=O)C2=CN1CCc1c[nH]c2ccccc12 (stereo not shown)  6.29%
24. CCOC(=O)[C@@H]1[C@H]2COc3ccccc3[C@@H]2N2C(=O)N(c3ccc(C)cc3)C(=O)[C@]12C  6.27%
25. CN(C)CCCC(C)(O)C(C)(C)c1ccccc1.Cl (stereo not shown)  5.53%
26. O=[N+]([O-])c1cc(S(=O)(=O)Nc2ccccc2)ccc1N1CCN(c2ccccc2)CC1  5.34%
27. Cc1cccc(OCCCC(=O)Nc2ccc(S(=O)(=O)Nc3nccs3)cc2)c1C  5.13%
28. CC(=O)c1ccc(NC(=O)C2(c3ccccc3)CC2(Cl)Cl)cc1 (stereo not shown)  5.11%
29. O=C(COC(=O)c1cc[n+]([O-])cc1)Nc1ccc([N+](=O)[O-])cc1Cl  5.02%
30. COc1nc(NC2CCCCC2)nc(NC(C)(C)C)n1  4.9%
31. O=C(NCc1ccc(F)cc1)c1c(O)c2cccc3c2n(c1=O)CCC3  4.88%
32. CN(C)C(=O)COC(=O)/C=C/c1cn(-c2ccccc2)nc1-c1cccs1  4.82%
33. CCOC(=O)C1=C(SCC(=O)Nc2ccccc2)NC(=O)C(C#N)C12CCCCC2 (stereo not shown)  4.71%
34. COc1ccc(/C=C/C(=O)c2ccccc2)cc1Cn1nnc2ccccc21  4.42%
35. CCOC(=O)c1c(C)[nH]c(C(=O)N/N=C\c2ccccc2O)c1C  4.25%
36. CCc1nc(C)ccc1OCC(=O)N1CCc2c([nH]c3ccccc23)C1c1ccccn1 (stereo not shown)  3.6%
37. COCC1CCCCN1C(=O)c1cccc(OC2CCN(C(=O)C3CC3)CC2)c1 (stereo not shown)  0.726%
38. CNC(=O)COC(=O)CCC(=O)c1cccs1  -2.28%
39. O=P(O)(O)O.Oc1ccc(Br)cc1/C=N/N1CCCCC1  -3.79%
40. O=C(c1ccc(Cl)cc1)N(Cc1cccs1)C1CCS(=O)(=O)C1 (stereo not shown)  -3.91%
41. C=CCn1c(SCc2ccc(C(=O)OC)cc2)nnc1-c1sc(N)nc1C  -5.74%
42. Cc1ccc(C)c(Cn2nnc3c(=O)[nH]c(C(=O)NCC4CCCO4)nc32)c1 (stereo not shown)  -10.4%
43. c1cc(-c2sc(-c3ccncc3)c(-c3ccncc3)c2-c2ccncc2)ccn1  -12.7%
